Our source for the binding signal values is PMC9911399, “Two distinct binding modes provide the RNA-binding protein RbFox with extraordinary sequence specificity”.

Sequences and labels used below:
B1: GGCAGGU (DNA:RNA)
RNA: GGGAGACCGGAAUUCAGAUUGUCCGGCAGGUUUAAAUCCCGUCGUAGCCACCA
DNA 1: CAATCTGAATTCCGGTCTCCC
DNA 2: TGGTGGCTACGACGGGATT
B2: UUUUCAC (DNA:RNA)
RNA: GGGAGACCGGAAUUCAGAUUGUCCUUUUCACUUAAAUCCCGUCGUAGCCACCA
DNA 1: CAATCTGAATTCCGGTCTCCC
DNA 2: TGGTGGCTACGACGGGATT
B3: UGGGCUA (DNA:RNA)
RNA: B2 RNA with U26G, U27G, U28G, A30U, C31A
DNA 1: CAATCTGAATTCCGGTCTCCC
DNA 2: TGGTGGCTACGACGGGATT
B4: GGGUAGA (DNA:RNA)
RNA: B1 RNA with C27G, A28U, G29A, U31A
DNA 1: CAATCTGAATTCCGGTCTCCC
DNA 2: TGGTGGCTACGACGGGATT
B5: CAGCUGU (DNA:RNA)
RNA: B1 RNA with G25C, G26A, C27G, A28C, G29U
DNA 1: CAATCTGAATTCCGGTCTCCC
DNA 2: TGGTGGCTACGACGGGATT
B6: GACAGGG (DNA:RNA)
RNA: B1 RNA with G26A, U31G
DNA 1: CAATCTGAATTCCGGTCTCCC
DNA 2: TGGTGGCTACGACGGGATT
B7: UAUAUUU (DNA:RNA)
RNA: B1 RNA with G25U, G26A, C27U, G29U, G30U
DNA 1: CAATCTGAATTCCGGTCTCCC
DNA 2: TGGTGGCTACGACGGGATT
B8: CUUGACC (DNA:RNA)
RNA: B2 RNA with U25C, U28G, C29A, A30C
DNA 1: CAATCTGAATTCCGGTCTCCC
DNA 2: TGGTGGCTACGACGGGATT
B9: CAUCAAA (DNA:RNA)
RNA: B2 RNA with U25C, U26A, U28C, C29A, C31A
DNA 1: CAATCTGAATTCCGGTCTCCC
DNA 2: TGGTGGCTACGACGGGATT
B10: CCUCGCG (DNA:RNA)
RNA: B1 RNA with G25C, G26C, C27U, A28C, G30C, U31G
DNA 1: CAATCTGAATTCCGGTCTCCC
DNA 2: TGGTGGCTACGACGGGATT
B11: UGGUCUC (DNA:RNA)
RNA: B2 RNA with U26G, U27G, A30U
DNA 1: CAATCTGAATTCCGGTCTCCC
DNA 2: TGGTGGCTACGACGGGATT
B12: UGACGCA (DNA:RNA)
RNA: B1 RNA with G25U, C27A, A28C, G30C, U31A
DNA 1: CAATCTGAATTCCGGTCTCCC
DNA 2: TGGTGGCTACGACGGGATT
B13: GUGGUAU (DNA:RNA)
RNA: B1 RNA with G26U, C27G, A28G, G29U, G30A
DNA 1: CAATCTGAATTCCGGTCTCCC
DNA 2: TGGTGGCTACGACGGGATT
B14: UGUUCCU (DNA:RNA)
RNA: B2 RNA with U26G, A30C, C31U
DNA 1: CAATCTGAATTCCGGTCTCCC
DNA 2: TGGTGGCTACGACGGGATT
B15: CCUUAAG (DNA:RNA)
RNA: B2 RNA with U25C, U26C, C29A, C31G
DNA 1: CAATCTGAATTCCGGTCTCCC
DNA 2: TGGTGGCTACGACGGGATT
B16: CGAAAAG (DNA:RNA)
RNA: B1 RNA with G25C, C27A, G29A, G30A, U31G
DNA 1: CAATCTGAATTCCGGTCTCCC
DNA 2: TGGTGGCTACGACGGGATT
B17: GACCCUU (DNA:RNA)
RNA: B1 RNA with G26A, A28C, G29C, G30U
DNA 1: CAATCTGAATTCCGGTCTCCC
DNA 2: TGGTGGCTACGACGGGATT
B18: GGUACCA (DNA:RNA)
RNA: B1 RNA with C27U, G29C, G30C, U31A
DNA 1: CAATCTGAATTCCGGTCTCCC
DNA 2: TGGTGGCTACGACGGGATT
B19: AUUAAUC (DNA:RNA)
RNA: B2 RNA with U25A, U28A, C29A, A30U
DNA 1: CAATCTGAATTCCGGTCTCCC
DNA 2: TGGTGGCTACGACGGGATT
B20: CACGGAC (DNA:RNA)
RNA: B1 RNA with G25C, G26A, A28G, G30A, U31C
DNA 1: CAATCTGAATTCCGGTCTCCC
DNA 2: TGGTGGCTACGACGGGATT
B21: UGCUUCG (DNA:RNA)
RNA: B1 RNA with G25U, A28U, G29U, G30C, U31G
DNA 1: CAATCTGAATTCCGGTCTCCC
DNA 2: TGGTGGCTACGACGGGATT
B22: UGCAGCA (DNA:RNA)
RNA: B1 RNA with G25U, G30C, U31A
DNA 1: CAATCTGAATTCCGGTCTCCC
DNA 2: TGGTGGCTACGACGGGATT
B23: GGAACGU (DNA:RNA)
RNA: B1 RNA with C27A, G29C
DNA 1: CAATCTGAATTCCGGTCTCCC
DNA 2: TGGTGGCTACGACGGGATT
B24: UAGUUCG (DNA:RNA)
RNA: B2 RNA with U26A, U27G, C29U, A30C, C31G
DNA 1: CAATCTGAATTCCGGTCTCCC
DNA 2: TGGTGGCTACGACGGGATT
B25: UCGGGUC (DNA:RNA)
RNA: B2 RNA with U26C, U27G, U28G, C29G, A30U
DNA 1: CAATCTGAATTCCGGTCTCCC
DNA 2: TGGTGGCTACGACGGGATT
B26: AAACGUU (DNA:RNA)
RNA: B1 RNA with G25A, G26A, C27A, A28C, G30U
DNA 1: CAATCTGAATTCCGGTCTCCC
DNA 2: TGGTGGCTACGACGGGATT
B27: GAACUGG (DNA:RNA)
RNA: B1 RNA with G26A, C27A, A28C, G29U, U31G
DNA 1: CAATCTGAATTCCGGTCTCCC
DNA 2: TGGTGGCTACGACGGGATT
B28: AGGGGAC (DNA:RNA)
RNA: B1 RNA with G25A, C27G, A28G, G30A, U31C
DNA 1: CAATCTGAATTCCGGTCTCCC
DNA 2: TGGTGGCTACGACGGGATT
B29: UCCAUUU (DNA:RNA)
RNA: B1 RNA with G25U, G26C, G29U, G30U
DNA 1: CAATCTGAATTCCGGTCTCCC
DNA 2: TGGTGGCTACGACGGGATT
B30: ACGGACG (DNA:RNA)
RNA: GGGAGACCGGAAUUCAGAUUGUCCACGGACGUUAAAUCCCGUCGUAGCCACCA
DNA 1: CAATCTGAATTCCGGTCTCCC
DNA 2: TGGTGGCTACGACGGGATT
B31: UGAACAU (DNA:RNA)
RNA: B1 RNA with G25U, C27A, G29C, G30A
DNA 1: CAATCTGAATTCCGGTCTCCC
DNA 2: TGGTGGCTACGACGGGATT

Numbering of substitutions follows the chain as printed; changes in the protein carry UniProt numbers. This is one part of the list.

This experiment has as its target T1, RBFOX1 RRM (Homo sapiens, UniProt Q9NWB1 109-208).
T1 sequence: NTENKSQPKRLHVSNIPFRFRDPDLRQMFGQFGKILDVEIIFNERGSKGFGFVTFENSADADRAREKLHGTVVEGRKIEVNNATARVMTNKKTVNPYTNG
As to the kind of experiment: EMSA; HiTS-Eq, 1 nM pool, 10 min; buffer printed only for the single-RNA assays: 10 mM Tris pH 7.5, 150 mM NaCl, 3.4 mM EDTA, 0.001% NP-40, 30 C. As to conditions: tags: His6 N-terminal (pET28a); label: 5' 32P. The procedure, abridged:
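Purified RbFox RRM, wild type or mutant, was incubated for 10 min in 50 µL with 1 nM of a 5′-radiolabelled RNA pool carrying 7 randomized nucleotides, whose flanks were annealed to DNA oligonucleotides, over a series of increasing protein concentrations. Unbound RNA was resolved on 8% native PAGE, cut out, reverse-transcribed, barcoded by PCR and sequenced on an Illumina HiSeq 2500. Relative association constants were derived from changes in read counts for each RNA species versus the control reaction and normalised to the cognate motif.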
In general terms: In EMSA bound probe runs differently from free probe, usually more slowly.
Take B1: the binding signal is 0.007 KA relative to UGCAUGU.
The figure for B2 is 0.00776 KA relative to UGCAUGU; for B3 it is 0.0261 KA relative to UGCAUGU.
The same measure for B4: 0.0155 KA relative to UGCAUGU.
Regarding B5, the binding signal was 0.00977 KA relative to UGCAUGU.
Turning to B6, the binding signal is 0.0115 KA relative to UGCAUGU.
The figure for B7 is 0.00235 KA relative to UGCAUGU.
The same measure for B8: 0.0059 KA relative to UGCAUGU; for B9: 0.00054 KA relative to UGCAUGU.
The figure for B10 is 0.00752 KA relative to UGCAUGU; for B11 it is 0.0219 KA relative to UGCAUGU; for B12 it is 0.0206 KA relative to UGCAUGU.
Regarding B13, the binding signal is 0.0119 KA relative to UGCAUGU.
The figure for B14 is 0.0154 KA relative to UGCAUGU; for B15 it is 0.00771 KA relative to UGCAUGU.
The same measure for B16: 0.00581 KA relative to UGCAUGU; for B17: 0.00469 KA relative to UGCAUGU; for B18: 0.00861 KA relative to UGCAUGU.
The figure for B19 is 0.00236 KA relative to UGCAUGU.
With B20, the binding signal was 0.00842 KA relative to UGCAUGU.
The same measure for B21: 0.0247 KA relative to UGCAUGU; for B22: 0.0136 KA relative to UGCAUGU.
The figure for B23 is 0.0248 KA relative to UGCAUGU; for B24 it is 0.0246 KA relative to UGCAUGU; for B25 it is 0.0188 KA relative to UGCAUGU.
The figure for B26 is 0.00507 KA relative to UGCAUGU; for B27 it is 0.0152 KA relative to UGCAUGU; for B28 it is 0.0113 KA relative to UGCAUGU.
As for B29, the binding signal was 0.00344 KA relative to UGCAUGU.
The figure for B30 is 0.00371 KA relative to UGCAUGU; for B31 it is 0.00781 KA relative to UGCAUGU.
